According to PMC11949107, “Polyunsaturated fatty acids and their endocannabinoid-related metabolites activity at human TRPV1 and TRPA1 ion channels expressed in HEK-293 cells” (PeerJ, 2025):
Several values for one entry are separate records, joined by “and”; a condition that tells them apart may be missing. Equal values may be shown once. The source gives many values for each of these; only a part stands here.

Legend:
Assay type in all cases: cell-based
[1] = target: T1, human TRPV1 (Homo sapiens, UniProt Q8NER1); assay: PMA (phorbol ester) potentiation of TRPV1 responses in HEK-293 TRPV1 cells; conditions: sheet Figure 5(C)
T1 construct: Life Technologies (cells); host or cells: Flp-In T-REx HEK-293
T1 sequence (Q8NER1 whole entry): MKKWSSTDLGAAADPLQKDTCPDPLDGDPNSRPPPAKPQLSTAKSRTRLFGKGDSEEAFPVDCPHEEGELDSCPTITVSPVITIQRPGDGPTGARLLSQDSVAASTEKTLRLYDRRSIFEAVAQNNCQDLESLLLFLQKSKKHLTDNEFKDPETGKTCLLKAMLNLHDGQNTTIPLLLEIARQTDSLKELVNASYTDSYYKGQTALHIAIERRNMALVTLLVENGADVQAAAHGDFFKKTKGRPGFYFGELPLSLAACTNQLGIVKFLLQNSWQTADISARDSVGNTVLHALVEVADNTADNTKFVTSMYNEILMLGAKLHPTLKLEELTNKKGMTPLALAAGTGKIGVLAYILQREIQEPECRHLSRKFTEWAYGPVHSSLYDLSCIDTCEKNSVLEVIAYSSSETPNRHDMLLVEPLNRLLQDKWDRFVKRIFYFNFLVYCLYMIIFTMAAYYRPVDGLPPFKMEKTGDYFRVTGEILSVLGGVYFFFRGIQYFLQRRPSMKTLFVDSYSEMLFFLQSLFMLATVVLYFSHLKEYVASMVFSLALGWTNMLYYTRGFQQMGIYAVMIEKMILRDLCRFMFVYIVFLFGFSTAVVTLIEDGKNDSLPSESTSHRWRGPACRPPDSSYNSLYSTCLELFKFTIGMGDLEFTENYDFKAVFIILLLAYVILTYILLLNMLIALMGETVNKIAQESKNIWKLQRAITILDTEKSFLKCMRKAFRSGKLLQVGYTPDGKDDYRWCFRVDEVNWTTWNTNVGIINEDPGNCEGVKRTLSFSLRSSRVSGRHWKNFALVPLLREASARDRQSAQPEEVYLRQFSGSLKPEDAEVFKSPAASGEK
Method: (§1) Intracellular calcium [Ca]i levels were assessed using the calcium 5 kit from Molecular Devices (# R8186, Sunnyvale, CA, USA) on a FlexStation 3 Microplate Reader (Molecular Devices, Sunnyvale, CA, USA). […] Probenecid (cat # 50027; Biotium) which helps to prevent expulsion of calcium indicator from the cells was added to a final concentration of 1.25 mM. 90 µL of the dye were loaded into each well of the plate and incubated for 1 h before reading in the FlexStation 3 at 37 °C. Fluorescence was recorded every 2 s (λ excitation = 485 nm, λ emission = 525 nm) for 5 min. After 1 min of baseline recording, 20 µL of the drug, dissolved in HBSS with 1% dimethyl sulfoxide (DMSO) (cat # D2650; Sigma-Aldrich, Melbourne, Australia) was added (final DMSO concentration was 0.1% in well).
We initially determined the effect of PMA, another phorbol ester that is a protein kinase C activator ([Jiang & Fleet, 2012]) on HEK-293 TRPV1 expressing cells.
(A) Response of HEK-293 TRPV1 expressing cells for PMA at various concentration. […] Drugs were added for the duration of the bar; (D) The effects of PUFAs after potentiation of TRPV1 by PMA. […] Changes in [Ca]i are expressed as percentage of the pre-drug baseline, with the response to PMA alone at 5 min subtracted. The black circles represent the response of PUFAs without PMA pretreatment while the pink circles represent the response of PUFAs after PMA potentiation.

[2] = target: T1, human TRPV1; assay: Calcium 5 dye [Ca]i assay in HEK-293 Flp-In T-REx cells expressing TRPV1 (agonist response)
Method: (§2) The cells were incubated in a 5% CO2 humidified atmosphere at 37 °C. Upon reaching approximately 90% confluence in 75 cm^2 flasks, they were trypsinized and transferred to poly-D-lysine coated 96-well plates (Corning, Castle Hill, NSW, Australia) in L-15 medium supplemented with 1% FBS, 100 U penicillin and 100 µg streptomycin ml^−1 (1% P/S), and 15 mM glucose (80 µL volume per well). After an overnight incubation (maximum of 16 h) in humidified room air at 37 °C, TRPV1 and TRPA1 receptor expression was induced 4 h before experimentation by adding to each well 10 µL tetracycline solution to a final concentration of 1 µg ml^−1.
as §1
(§3) The response to agonists was expressed as a percentage change from the average baseline measurement taken for 60s before adding drug. Changes in fluorescence resulting from the addition of solvent were subtracted before normalization to baseline. Concentration–response curves (CRC), Emax and EC50 values were determined using a three-parameter logistic equation (GraphPad Prism, San Diego, CA, USA). […] Potencies were expressed as pEC50, which is the negative log of EC50 in moles per litre (Molar). Where appropriate, unpaired Student’s t-test were used to compare the responses of individual compounds in different conditions, while a one-way ANOVA followed by Dunnett’s multiple comparisons test was used to assess potential differences in responses elicited by a range of compounds. P < 0.05 was considered statistically significant.

[3] = target: T2, human TRPA1 (Homo sapiens, UniProt O75762); assay: Calcium 5 dye [Ca]i assay in HEK-293 Flp-In T-REx cells expressing TRPA1 (agonist response); conditions: sheet Figure 4, listed as CA
T2 construct: Life Technologies (cells); host or cells: Flp-In T-REx HEK-293
T2 sequence (O75762 whole entry): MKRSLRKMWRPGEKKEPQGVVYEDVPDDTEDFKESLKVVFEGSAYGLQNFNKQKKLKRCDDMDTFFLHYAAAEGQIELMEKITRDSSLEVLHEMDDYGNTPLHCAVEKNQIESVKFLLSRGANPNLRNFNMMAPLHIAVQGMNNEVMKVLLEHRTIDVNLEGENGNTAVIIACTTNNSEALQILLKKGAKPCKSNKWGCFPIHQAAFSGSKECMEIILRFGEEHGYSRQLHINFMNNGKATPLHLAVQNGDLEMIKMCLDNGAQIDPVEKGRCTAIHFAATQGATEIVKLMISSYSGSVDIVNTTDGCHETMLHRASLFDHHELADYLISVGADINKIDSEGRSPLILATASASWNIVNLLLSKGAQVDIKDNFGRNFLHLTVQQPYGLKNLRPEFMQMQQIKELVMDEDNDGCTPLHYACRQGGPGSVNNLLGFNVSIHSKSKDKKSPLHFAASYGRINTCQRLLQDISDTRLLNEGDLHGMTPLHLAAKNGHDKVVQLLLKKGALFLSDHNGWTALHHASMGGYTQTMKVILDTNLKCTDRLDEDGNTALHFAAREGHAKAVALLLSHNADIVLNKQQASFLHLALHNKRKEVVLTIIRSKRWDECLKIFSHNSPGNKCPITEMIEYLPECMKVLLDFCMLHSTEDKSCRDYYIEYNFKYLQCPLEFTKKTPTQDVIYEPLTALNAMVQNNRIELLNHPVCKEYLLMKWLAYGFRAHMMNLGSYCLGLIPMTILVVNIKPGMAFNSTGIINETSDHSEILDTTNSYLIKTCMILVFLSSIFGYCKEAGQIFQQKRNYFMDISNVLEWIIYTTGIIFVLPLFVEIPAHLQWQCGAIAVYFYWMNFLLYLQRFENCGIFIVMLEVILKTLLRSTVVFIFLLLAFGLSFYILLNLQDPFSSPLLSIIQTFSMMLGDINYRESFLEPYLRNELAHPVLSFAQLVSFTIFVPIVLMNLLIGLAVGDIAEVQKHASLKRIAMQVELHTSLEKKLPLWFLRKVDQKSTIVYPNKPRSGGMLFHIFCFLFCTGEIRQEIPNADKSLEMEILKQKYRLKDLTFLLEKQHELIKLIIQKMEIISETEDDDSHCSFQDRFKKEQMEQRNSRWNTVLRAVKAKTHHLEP
Method: as §2, §1, §3

COc1cc(CNC(=O)CCCC/C=C/C(C)C)ccc1O [Capsaicin]
[Ca]i response (change in fluorescence), individual replicates ([1]; Capsaicin alone, concentration -7 (log)): 537.437 and 458.607 and 326.132 and 548.068 and 557.729 and 564.127 and 584.567 and 101.61 and 533.123 and 540.05 and 540.902
[Ca]i response (change in fluorescence), individual replicates ([1]; Capsaicin alone, concentration -7.52288 (log)): 378.009 and 497.618 and 498.208 and 264.188 and 524.034 and 489.52 and 526.489 and 517.673
[Ca]i response (change in fluorescence), individual replicates ([1]; Capsaicin post-PMA, concentration -6.52288 (log)): 474.005
[Ca]i response (change in fluorescence), individual replicates ([1]; Capsaicin post-PMA, concentration -7 (log)): 458.372 and 374.744 and 486.799 and 539.234 and 405.184 and 500.54 and 449.452 and 421.453 and 234.945
[Ca]i response (change in fluorescence), individual replicates ([1]; Capsaicin post-PMA, concentration -7.52288 (log)): 414.324 and 425.309 and 371.472
Change in Ca5 fluorescence, individual experiments (CRC raw data) ([2]; log concentration -6 (M)): 211.63 and 351.159 and 247.922 and 122.31 and 532.736 and 519.757 and 484.594
Change in Ca5 fluorescence, individual experiments (CRC raw data) ([2]; log concentration -7 (M)): 149.785 and 483.821 and 461.679 and 83.1921 and 507.895 and 494.502 and 415.635
Change in Ca5 fluorescence, individual experiments (CRC raw data) ([2]; log concentration -7.52288 (M)): 159.197 and 418.759 and 158.659 and 83.1944 and 476.755 and 450.661 and 349.079
Change in Ca5 fluorescence, individual experiments (CRC raw data) ([2]; log concentration -8 (M)): 141.864 and 312.735 and 345.351 and 76.2098 and 368.076 and 267.016 and 319.246
Change in Ca5 fluorescence, individual experiments (CRC raw data) ([2]; log concentration -8.52288 (M)): 127.399 and 12.2423 and 8.27 and 59.6746 and 9.776 and 29.1085 and 28.7976
Change in Ca5 fluorescence, individual experiments (CRC raw data) ([2]; log concentration -9 (M)): 65.3455 and 10.8255 and 10.1388 and 35.8436

O=C/C=C/c1ccccc1 [Cinnamaldehyde, reference compound]
[Ca]i response (change in fluorescence), individual replicates ([3]; concentration -3.52288 (log)): 579.18 and 443.895 and 314.03 and 238.126 and 505.429 and 366.901 and 547.612 and 503.571
[Ca]i response (change in fluorescence), individual replicates ([3]; concentration -4 (log)): 512.677 and 386.358 and 182.251 and 90.233 and 462.503 and 256.186 and 470.33
[Ca]i response (change in fluorescence), individual replicates ([3]; concentration -4.52288 (log)): 104.319 and 294.992
[Ca]i response (change in fluorescence), individual replicates ([3]; concentration -6.52288 (log)): 14.1967 and 1.152 and 7.195 and 7.239 and 0.1872 and 2.197 and 47.8813 and 6.537
